Source: the supplement of paper PMC11417369
± gives the standard deviation of the averaged measurements. This is one part of the list.

Tested on: PfAP2-I AP2 domain 3 (GST-tagged)
Test: gcPBM binding intensity (ln(normalized median fluorescence intensity)); higher = stronger DNA binding
How it was run: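 Binding intensity is the highest Masliner-normalised natural-log median intensity over replicate spots in either probe orientation. To obtain it, GST-tagged P. falciparum DNA-binding domains made in E. coli were incubated for 1 h on an Agilent 4 × 180k array of primer-extended double-stranded 36-bp intergenic genomic probes plus negative controls. Detection used Alexa488 anti-GST antibody with scanning at 488 nm.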

Sequence | gcPBM binding intensity (ln)
AGCAACCTGAAAAAATTACTCTTTCTTAAACAAATT [XGTACX_negctrl_site266] | 7.55 ± 0.64
CACAGACACGGACACACACACACACCCATATATATA [CACACA_site4354] | 8.44 ± 0.64
ATACAAGAATTAAACACACACAAAATATAAATTCTT [CACACA_site3005] | 7.85 ± 0.71
TTAAGGATTAAGGTGTGTACATATAAATATTATATA [XGTACX_site7532] | 7.87 ± 0.5
ACCTGTAAAAATGTTTATATATATATATATATATAT [CACACA_negctrl_site1500] | 9.63 ± 0.35
AAAAAAAAAAAAAATTGTACATAATAAAAATATGGA [XGTACX_site3189] | 7.98 ± 0.49
TGTTTATTCTTTAAATATTATTCAAATACTACAAGT [CACACA_negctrl_site746] | 7.5 ± 0.4
AATTAATGGGTACATACACACATATATACCTACATA [CACACA_site4572] | 7.83 ± 0.37
TCCATTTATAAATTAGCATGCAATCTATGTCTGATA [TGCATGCA_site1045] | 7.57 ± 0.59
ATCAAAAGAAAACACACACACATACAGATATATATA [CACACA_site5974] | 7.99 ± 0.94
ATATATCAATATAAAAGTACAAACAAAAAATAATCA [XGTACX_site7559] | 7.87 ± 0.52
GATATATACTCCATCACACACCAAAAAGAAAAAAGA [CACACA_site7242] | 7.92 ± 0.45
ATATATATATATATATGTACATATTTCTCCATTTTT [XGTACX_site2869] | 9.25 ± 0.81
GCATTGTCCATGCGCACACACTACTAGAATAATATG [CACACA_site5932] | 8.48 ± 0.55
AAACCGTGGGAGCACACACACACACCGACACATATA [CACACA_site4338] | 8.37 ± 0.53
GTTTTTTATAATTGTAGTACAAGAAGATATTTTTAT [XGTACX_site5443] | 8.09 ± 0.3
TGCAATTGTAAAGGCGCACACATATATATATATATA [CACACA_site4894] | 9.49 ± 0.26
CATATTTTTATAAATTGTACGTATATTATATATATA [XGTACX_site1816] | 8.49 ± 0.26
CCATCTAAACACAACTCGAGTTGGATGTGTGAACTT [XGTACX_negctrl_site83] | 7.59 ± 0.59
GCTTTTGTCATGTGCACACACGTATATATTATATAT [CACACA_site6146] | 10.44 ± 0.085
ATTTATATTTGTATTTGTACTTATATTTATATTTAT [XGTACX_site1540] | 7.72 ± 0.35
AAAAAGGTTAAGGTAGTGCATAATAAAGAATATTAA | 11 ± 0.45

Sequence | gcPBM binding intensity (ln)
CTATTATAATATTTTACACACCATGTAAAATATATA [CACACA_site3206] | 7.75 ± 0.39
ATCATTCTTCATTTGTCACACATGATAAAAATATAT [CACACA_site4953] | 8.16 ± 0.48
CTATTTTGGATGTGTACACATATATATATTTATATT [CACACA_site5706] | 8.19 ± 0.35
CATTAACATTTTATTACACACAATAATTTATAAGTA [CACACA_site4083] | 7.91 ± 0.38
TTTTTTAAGTAATGAAATGATTTTCTTATAGAATAA [GTGCAC_negctrl_site395] | 7.25 ± 0.55
TGTGCAAGATTTTTCTGTACATATATATAAATATAT [XGTACX_site1796] | 8.845 ± 0.064
AAATATTCTTGTTTAATACACACTGTAGTATTATAT [CACACA_site433] | 7.86 ± 0.57
TTAAATAGATAAACTAAACACACAAAAAAAAAAAAA [CACACA_site8308] | 7.96 ± 0.67
GAATAAGATAGATATACACACCATTATAAATATAAA [CACACA_site5392] | 7.86 ± 0.16
TTTTGTACTTCATGCGTGCACAGAAATATATTATAT | 10.5 ± 0.19
GCTAAAAGTATATGCACACACATATATATGCACATA [CACACA_site1635] | 10.3 ± 0.16
TAAATACTAATATGTACACACATATAGATATAGATT [CACACA_site7247] | 7.59 ± 0.22
TATGGTAAATACAACACACACACATATGTATTTATA [CACACA_site4666] | 7.91 ± 0.53
ATTTATTTATATAATACACACAAATATCTTAATTAA [CACACA_site3993] | 7.74 ± 0.38
TGGATATAAAACAACGTGCACTTGGTTGATTTTAAA [GTGCAC_site9900] | 10.51 ± 0.064
TTTTGTACAAAAATAATGCACACTATATCAAGTTTT [CACACA_site3595] | 11 ± 0.51
ATATAAAAAGGAAAAAGTACAAAAAAATGTTTGTGA [XGTACX_site8552] | 7.59 ± 0.57
AAGAAAATATATTCACATGAAGAATTAAAATAAAAC [TGCATGCA_negctrl_site119] | 7.78 ± 0.59
TTTTTTTTTTTTTTTTTTGGTGAGAGAAGAAAATTC [CACACA_negctrl_site950] | 8.14 ± 0.79
TAGGCCTTAAATCGTGTGCACTTTTTTTTTTTTTTT | 9.775 ± 0.092
TATGTGCCAAAACACACACACATATATATATATATA [CACACA_site469] | 9.53 ± 0.54
CAAATTATTATTTAAGCACACATGTTTATTTTTTTT [CACACA_site2672] | 8.57 ± 0.14

Sequence | gcPBM binding intensity (ln)
AAATATATCAATATATATATATATATATATATATAT [XGTACX_negctrl_site544] | 9.06 ± 0.36
AAGCATACATCAAGCACACACACACCCACACCCACA [CACACA_site372] | 8.17 ± 0.59
TATATATATATAATTTGTACATATATATGTAACAAT [XGTACX_site8728] | 9.21 ± 0.49
TTCTGCTACCACTTGAATGTCAATGAAATTAAAAAA [CACACA_negctrl_site1164] | 8.17 ± 0.4
ATTTATAAAACAGGCACACATATAATAAATTTTATA [CACACA_site2600] | 7.95 ± 0.28
TAATAATTATTGCACGCACACAAAAACCTATAGATT [CACACA_site2931] | 11 ± 0.67
ACTATAAATATTTATAAACACACAAATATATATATT [CACACA_site7891] | 7.88 ± 0.47
ATTTTTTTTTTTACAGTGGAACCATATTTGCTCATT [CACACA_negctrl_site940] | 7.75 ± 0.67
ATACAATACACCGAACGTACATAAATCTATCTTTTA [XGTACX_site3668] | 8.05 ± 0.52
ATAATAAATGATAGCACACATATGTACATATATACA [CACACA_site864] | 8.21 ± 0.28
AATACCGGAAAGCAAACACACATTTTAAAACCATAA [CACACA_site3862] | 7.86 ± 0.39
GATTATCTATCGCTTGAATGAAATGAAATCATGCAA [GTGCAC_negctrl_site471] | 7.36 ± 0.62
AAATAAAATAAAAGCACACAAAATGTAAATAATTAT [CACACA_site2775] | 8.44 ± 0.36
GTATGTAATATTTTAGTGCAAAAAAAAAAAAAAAAA [GTGCAC_site9790] | 10.3 ± 0.4
AAAGAAATAAAAAAAAGTACACAATTATAAATATAT [XGTACX_site3428] | 8.05 ± 0.32
AAAATACTTTGAATTTGTACATATAGACATAATATT [XGTACX_site6181] | 7.49 ± 0.4
CGCGAACATACATACACACACATATTTATATAGGTA [CACACA_site6241] | 7.62 ± 0.54
AACATACCCATATACACACACACATAAATACAGATA [CACACA_site4744] | 8.07 ± 0.35
ATGTTAATCATTAAAAATAAAGTTTAATATAAGAAT [XGTACX_negctrl_site155] | 7.58 ± 0.66
CAAAACAAGCAAAAATGTACTTGATAAATATTTTCT [XGTACX_site1776] | 7.5 ± 0.46
ATTTAATTCTTTTGTTATAAAATTTTAGTATATATA [CACACA_negctrl_site1649] | 7.86 ± 0.57
CAAAAAAAATTATACACACACACACCGATATATATA [CACACA_site4719] | 8.2 ± 0.79

Sequence | gcPBM binding intensity (ln)
TTTATATATCAATACATTATGTATTAAGTCTTACAT [TGCATGCA_negctrl_site499] | 7.43 ± 0.64
GGTATATAAAAATATTGTACGAAAATATGCATATAA [XGTACX_site2501] | 7.92 ± 0.59
TTTTAATTAAAAAAATATATAATAAAATTAAATTAT [CACACA_negctrl_site95] | 7.36 ± 0.52
AAATATAAAAAATATACACACATATAAAATCTATAT [CACACA_site7406] | 7.53 ± 0.59
TTTTAAAAAAAACAAAAACATTGTCATATGGAAAAT [CACACA_negctrl_site297] | 7.86 ± 0.69
GTATGTTAATTTAATTGTACAAAAAGATACACTGAT [XGTACX_site5710] | 8.13 ± 0.44
AGGAACAATATATTTGCACACAAAAAATATATATTT [CACACA_site3316] | 9.205 ± 0.021
TATATAAATGTTATCACACACTCACGTTTGACAAAA [CACACA_site6468] | 7.67 ± 0.6
TTTACAATATAAAATACACACACACTAACATATATT [CACACA_site9231] | 7.88 ± 0.51
TCCTTTTTTAAAAGTTGTACATTATTGTTATTTGTT [XGTACX_site4686] | 7.76 ± 0.46
ATACAATAAAATAAGTTTGAATAAAATTAAATATAT [CACACA_negctrl_site877] | 7.47 ± 0.62
GAAGGAAATAATAGTAGTACAAATGGTAAGAAATAT [XGTACX_site5845] | 8.39 ± 0.78
TTCCTCTTAATATGTGCACACTAAATTATAACCTAA [CACACA_site5751] | 10.47 ± 0.064
GAGAAAGATATATACACACACATAAATATGTACATA [CACACA_site6975] | 7.68 ± 0.47
TTTACAATATTAAAATGTACATATAAAATAAATAAA [XGTACX_site8367] | 7.92 ± 0.42
TTTCCCAAGCTTATTACACACAAGTAGAATAAGCTT [CACACA_site1561] | 7.53 ± 0.51
TATATAGGTAAAAAATGTACTTATATTGAATATATT [XGTACX_site4414] | 7.62 ± 0.66
GATATCAAATATAAATGTACAAATTATATATACATA [XGTACX_site3228] | 7.42 ± 0.29
TTCTTATTTATTTTCTTCTCCTTCCTCAAATTTTTT [GTGCAC_negctrl_site592] | 7.93 ± 0.71
AATTTGTTAATATTTTGTACACATAATATAAAAACA [XGTACX_site2224] | 7.86 ± 0.28
TATATGTTATATTGGACACACACAATAAACATTATG [CACACA_site8480] | 7.71 ± 0.43
AAACATAAAGAAAAAAAAAATATATATTTATTTATT [GTGCAC_negctrl_site357] | 7.44 ± 0.54
